According to the supplement of paper PMC12645437, “Orthogonal IMiD-Degron Pairs Induce Selective Protein Degradation in Cells” (ACS Chemical Biology, 2025):
This is one part of the list.

Molecular target: no compound (DMSO)
Experiment: log2 fold change of degron read counts, EGFP-low vs EGFP+ sorted cells; higher = lower degron-EGFP level without compound (poor expression or instability)
Conditions: compound: DMSO control; 18 h
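Note: jurkat cells carrying a lentiviral library of mutant zinc finger degrons fused to EGFP plus mCherry, mCherry+ cells FACS sorted, degron abundance counted by next-generation sequencing.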

| Sequence | log2 fold change of degron read counts |
| --- | --- |
| FSCEVCGASFTQKGNLLRHIKL | -2.03 |
| LECNQCGFACTQKGNLLRHIKL | -0.633 |
| LECNQCGFPCTQKGNLLRHIKL | -0.0422 |
| FRCPICGRSFTQKGNLLRHIKL | -0.435 |
| FFCDICGASFTQKGNLLRHIKL | -1.55 |
| FCCDICGADFTQKGNLLRHIKL | -0.873 |
| FTCNQCGRAFTQKGNLLRHIKL | -0.647 |
| FDCNQCGHSFTQKGNLLRHIKL | -0.21 |
| FLCDVCGASFTQKGNLLRHIKL | -1.55 |
| FTCEICGRLFTQKGNLLRHIKL | -1.32 |
| FFCNQCGRLFTQKGNLLRHIKL | 1.3 |
| FICEICGAQFTQKGNLLRHIKL | -1.71 |
| FYCPVCGAKFTQKGNLLRHIKL | -0.689 |
| FVCNQCGAIFTQKGNLLRHIKL | 0.0851 |
| FECSVCGHWFTQKGNLLRHIKL | 0.35 |
| FKCEVCGANFTQKGNLLRHIKL | -0.504 |
| FLCNQCGRMFTQKGNLLRHIKL | 0.285 |
| FHCNQCGRFFTQKGNLLRHIKL | 0.837 |
| FECEICGANFTQKGNLLRHIKL | -0.61 |
| FLCPICGAPFTQKGNLLRHIKL | 0.404 |
| FFCNQCGAHFTQKGNLLRHIKL | 0.177 |
| LSCNQCGFVCTQKGNLLRHIKL | 0.095 |
| FHCSVCGHYFTQKGNLLRHIKL | 0.574 |
| FMCPICGARFTQKGNLLRHIKL | -0.458 |
| FDCNVCGALFTQKGNLLRHIKL | 0.159 |

| Sequence | log2 fold change of degron read counts |
| --- | --- |
| LQCPICGFNCTQKGNLLRHIKL | 0.747 |
| LLCPICGFPCTQKGNLLRHIKL | 1.28 |
| FKCPQCGAYFTQKGNLLRHIKL | 0.349 |
| LDCPICGFQCTQKGNLLRHIKL | 0.519 |
| LVCNQCGFKCTQKGNLLRHIKL | 0.00903 |
| FRCEICGHLFTQKGNLLRHIKL | -0.958 |
| FSCNICGAIFTQKGNLLRHIKL | 0.194 |
| LYCPICGFNCTQKGNLLRHIKL | 1.08 |
| FMCNVCGAQFTQKGNLLRHIKL | -0.979 |
| FCCEICGHEFTQKGNLLRHIKL | -2.82 |
| FACNICGAWFTQKGNLLRHIKL | 0.615 |
| LGCPICGFVCTQKGNLLRHIKL | 1.32 |
| FTCNQCGRLFTQKGNLLRHIKL | 0.0312 |
| LFCPICGFMCTQKGNLLRHIKL | 1.48 |
| FICNICGAGFTQKGNLLRHIKL | -0.313 |
| FACNVCGAGFTQKGNLLRHIKL | -0.923 |
| FKCDICGAAFTQKGNLLRHIKL | -2.39 |
| FQCEQCGARFTQKGNLLRHIKL | -1.93 |
| LNCPICGFACTQKGNLLRHIKL | 0.806 |
| FNCNICGADFTQKGNLLRHIKL | -1.53 |
| FICDVCGAQFTQKGNLLRHIKL | -1.14 |
| FQCNQCGHPFTQKGNLLRHIKL | -0.157 |
| LRCEICGFSCTQKGNLLRHIKL | -0.352 |
| LMCNQCGFTCTQKGNLLRHIKL | 0.365 |
| FVCEQCGARFTQKGNLLRHIKL | -2.25 |
